Assay results: the BET-seq Pho4 binding data (Le et al. 2018)
This is one part of the list. Values were computed here from the reads of four pooled replicates and scatter widely.

Target: T1, Pho4 (S. cerevisiae) (UniProt P07270)
T1 sequence: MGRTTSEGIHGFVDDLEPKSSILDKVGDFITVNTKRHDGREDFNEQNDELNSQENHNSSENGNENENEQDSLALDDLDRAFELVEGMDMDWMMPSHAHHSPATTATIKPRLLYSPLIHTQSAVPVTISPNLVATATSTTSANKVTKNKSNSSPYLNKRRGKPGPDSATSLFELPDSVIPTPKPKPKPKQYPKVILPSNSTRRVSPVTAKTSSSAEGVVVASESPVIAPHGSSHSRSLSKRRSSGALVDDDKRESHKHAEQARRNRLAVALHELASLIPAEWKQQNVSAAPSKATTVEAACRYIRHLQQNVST
Assay: relative binding free energy (BET-seq); higher = weaker binding
Conditions: reference: library average

Relative binding free energy, 0.1 kcal/mol:
TGTATCACGTGGCAGT
GTGGTCACGTGTGTGC
GCGTTCACGTGGCGGG
TGAGCCACGTGTGGTA
TATTGCACGTGTACGG
TTAAGCACGTGAGGTG
TTGTTCACGTGGGTTA

Relative binding free energy, -0.11 kcal/mol:
CGTGACACGTGGTTTA
AGTTGCACGTGCTGTA
GTTAGCACGTGGCGGC
TCAAGCACGTGTGTAG

Relative binding free energy, 0.03 kcal/mol:
CTGGGCACGTGTAGCG
TTAAACACGTGTATAG

Relative binding free energy, 0.33 kcal/mol:
GCATGCACGTGAAGGG

Relative binding free energy, 0.28 kcal/mol:
TAGTTCACGTGTAGTT
GATCGCACGTGAAGGG
GGATACACGTGAATGG
GATAACACGTGAGGAG

Relative binding free energy, -0.12 kcal/mol:
GCGCGCACGTGGTGGG
GGTGGCACGTGTGCAC

Relative binding free energy, 0.31 kcal/mol:
ATCTTCACGTGGTAAG
GTGGCCACGTGAGTTT
ATGTTCACGTGCGTGA

Relative binding free energy, 0.39 kcal/mol:
GAGTTCACGTGTTAGG

Relative binding free energy, -0.04 kcal/mol:
TAGAACACGTGGCGTG
GTAGACACGTGTAAGG
TTAGTCACGTGGGCCT
GTTACCACGTGTGTTG
GCTGTCACGTGGGTGA
GGTAACACGTGCAGTG

Relative binding free energy, 0.14 kcal/mol:
ATTTGCACGTGAGGGG
GATTACACGTGTATAG
TTGATCACGTGGATAG
TGTATCACGTGTTGAT
TACTACACGTGTGGGG
GGTTCCACGTGGCAGT
TTAAGCACGTGCAATT

Relative binding free energy, 0.21 kcal/mol:
TTGTTCACGTGGCTAT
GGGCTCACGTGGGGAG
ATAGTCACGTGCGTTT
GTGTTCACGTGGGATT
CATTGCACGTGTGGGC

Relative binding free energy, 0.27 kcal/mol:
CAGTTCACGTGGAGTG
TGGGTCACGTGAAGGA
AGTTCCACGTGAGGGT
TAGTTCACGTGTCTGT

Relative binding free energy, 0.2 kcal/mol:
GCGGTCACGTGATGGT
GAGGACACGTGATTTG
GGTATCACGTGTGGCC
CAGGTCACGTGAGGGA
ATTATCACGTGACGTG
CTAGGCACGTGAGGAT

Relative binding free energy, -0.24 kcal/mol:
AGTCCCACGTGGGTGT
ATTGCCACGTGGGTGA
TCCGGCACGTGGTATG
ATGCGCACGTGGGGCT

Relative binding free energy, 0.4 kcal/mol:
TGAATCACGTGAGGTA
CGGTTCACGTGGAGTA

Relative binding free energy, 0.07 kcal/mol:
TTGTACACGTGGTTGG

Relative binding free energy, 0.04 kcal/mol:
GCTGTCACGTGGGCGT
TCCTTCACGTGGGGTT
GGTTGCACGTGCTATT
TGGGACACGTGGTGCT
ACGCTCACGTGGTGTG

Relative binding free energy, 0.29 kcal/mol:
TACTTCACGTGATGTT
TATTTCACGTGTCAGT

Relative binding free energy, -0.03 kcal/mol:
ATTGCCACGTGTGTGG
CGAGGCACGTGATGTT
GTTAGCACGTGGTGCG

Relative binding free energy, 0.25 kcal/mol:
ATGGTCACGTGAATGT

Relative binding free energy, 0.05 kcal/mol:
GGGATCACGTGGGTTG
GGCGGCACGTGTAGAA
GGGTGCACGTGGATGG
AGTGTCACGTGGATCT
GATAACACGTGGGTAA
AATATCACGTGGGCTG

Relative binding free energy, -0.02 kcal/mol:
CGGATCACGTGGTCGG
TAATGCACGTGGATTA
TGGTGCACGTGTGGCC
AGTGTCACGTGTGCAA

Relative binding free energy, 0.09 kcal/mol:
GTTGTCACGTGGCTAG
TATTACACGTGGAGCG

Relative binding free energy, -0.21 kcal/mol:
GTTCGCACGTGGGGGT

Relative binding free energy, 0.01 kcal/mol:
TTGGTCACGTGCCTGT

Relative binding free energy, -0.2 kcal/mol:
GAGGGCACGTGCGCGG

Relative binding free energy, 0.26 kcal/mol:
TAGTTCACGTGGTAGC
CGATTCACGTGTTGTG
AGGTTCACGTGCACGT
TAACTCACGTGTTATG
AGGTTCACGTGTTTTT

Relative binding free energy, 0 kcal/mol:
ATCGGCACGTGATGTT
CTGAGCACGTGTGGTA
CAATGCACGTGTTATG
AGGGCCACGTGTAGTG

Relative binding free energy, 0.16 kcal/mol:
GTAGACACGTGATGGA
GGCTGCACGTGTCAGT
AAGGTCACGTGAAGAT
GTTATCACGTGCATGG
CGCTTCACGTGGTGAG
GGTAACACGTGGAATG

Relative binding free energy, 0.18 kcal/mol:
TTTAGCACGTGAGGAG
AGTGGCACGTGAAGTT
GAAATCACGTGTTGTG
AGTAGCACGTGAAAGG
TAAGGCACGTGAAGGA
TGGTTCACGTGGGATA
ATCCTCACGTGTTGTG

Relative binding free energy, -0.19 kcal/mol:
CTCGGCACGTGTGTGT

Relative binding free energy, 0.08 kcal/mol:
AAAGGCACGTGTAAAG
TTTGTCACGTGGCGTA
AGGAACACGTGTTAAG
GTTTGCACGTGTTTTA

Relative binding free energy, -0.18 kcal/mol:
TGTCCCACGTGGGTGT
TGAAGCACGTGCTTTG
AGGGCCACGTGGGACG
GAGGCCACGTGGTATG
TTGTGCACGTGGTACA
ACTTGCACGTGGGCTG
CTCGACACGTGGGTGT
AGGTGCACGTGCCGGG
TTTGGCACGTGGATCT
GGGACCACGTGGTGGA

Relative binding free energy, 0.12 kcal/mol:
GGCTTCACGTGTAGTG
TGTTCCACGTGAGTGA
GGTTTCACGTGTTCAA
GTGGGCACGTGACGTC
TTTAACACGTGATTTT
GTGTACACGTGGTTAT

Relative binding free energy, -0.17 kcal/mol:
ATGGGCACGTGGGGAC
TGGGCCACGTGTGCAG

Relative binding free energy, 0.19 kcal/mol:
TCGGTCACGTGGATAT
GATATCACGTGGTTGA
GGTTACACGTGTGGCT
AATGGCACGTGAGTTT
TTGGACACGTGTATTT
GTTAACACGTGATGGC

Relative binding free energy, 0.22 kcal/mol:
TTAATCACGTGTGTAC

Relative binding free energy, -0.13 kcal/mol:
TAGTACACGTGGGCTA
TGGGCCACGTGTTATG
GGGAGCACGTGGTGAG
ATGGGCACGTGGGATA

Relative binding free energy, 0.44 kcal/mol:
GGTTTCACGTGAGATG
AGAATCACGTGAGGAT

Relative binding free energy, 0.24 kcal/mol:
TGCGTCACGTGTATTA
TGGTTCACGTGTAACG
CTATTCACGTGGCGGT
CCAGTCACGTGTGTTT

Relative binding free energy, 0.32 kcal/mol:
TGCGTCACGTGAATTT
GTGTTCACGTGTGGCC
ATCTTCACGTGCATGT

Relative binding free energy, -0.01 kcal/mol:
ATATACACGTGATAGT
GGTGGCACGTGAGCAG
ATTTGCACGTGTATGT
AGAGTCACGTGGCTTT
TTGTGCACGTGGACGG

Relative binding free energy, 0.34 kcal/mol:
ATTATCACGTGAGCGG
TTTGTCACGTGTGATT
TTGTGCACGTGAGAAG

Relative binding free energy, 0.38 kcal/mol:
TATTTCACGTGGAATG
GAGTTCACGTGATTAT

Relative binding free energy, 0.13 kcal/mol:
GTAATCACGTGGCATT
GTGGTCACGTGGTGGG
TGTAGCACGTGAGCTA
ATTTACACGTGAGCGG

Relative binding free energy, -0.06 kcal/mol:
GAGGGCACGTGGATGT
TAAGACACGTGGGGTA
ATTGACACGTGGTTTT
GTGAGCACGTGCGGGA

Relative binding free energy, -0.07 kcal/mol:
ATGAGCACGTGCATTT
ATAGCCACGTGGTAGT
TAGACCACGTGTTTGT
ATATACACGTGGGGGG
TCATGCACGTGGTTGA

Relative binding free energy, -0.28 kcal/mol:
AGGGGCACGTGCATAG

Relative binding free energy, 0.02 kcal/mol:
TACTTCACGTGGGAGG
CGTGACACGTGTTGGG
GCGCGCACGTGTGGTT
TGTGGCACGTGTGCCG
GTTTGCACGTGGGCGA
ACTTGCACGTGTTATG

Relative binding free energy, 0.23 kcal/mol:
TTTTTCACGTGACATA
TTGATCACGTGTAATT

Relative binding free energy, -0.22 kcal/mol:
CTTGGCACGTGTGCGT
TAAAACACGTGGGTAG

Relative binding free energy, 0.36 kcal/mol:
GTGGTCACGTGATGCA
TTAATCACGTGTGATG

Relative binding free energy, 0.11 kcal/mol:
AGGCGCACGTGAGGTG
TTTTACACGTGTCGTG
GTTTGCACGTGCAGCG
GATAGCACGTGTAAGT
TGAGTCACGTGCGTGC
GGTCTCACGTGGGGTA
CTTGGCACGTGAGTTA

Relative binding free energy, -0.16 kcal/mol:
AGTTGCACGTGGGGGT
CGGGGCACGTGGTGTT

Relative binding free energy, -0.08 kcal/mol:
AGGGGCACGTGATTTG
TTGCGCACGTGGTAGG
AAAGGCACGTGGCGAG
AGCGTCACGTGGCAGG
TTGTACACGTGTAGTA
GTGAGCACGTGGGAAG
TGAGGCACGTGGAGGG

Relative binding free energy, -0.14 kcal/mol:
AAGAGCACGTGTAGGT
GTCTGCACGTGGCGGG
AGAGCCACGTGTTGTG
GGACGCACGTGGGGAG
TTTCGCACGTGGGCTA

Relative binding free energy, -0.05 kcal/mol:
TCTGTCACGTGGTTAT
AATCGCACGTGGGATT
GGTTGCACGTGGTGCA
GGGGACACGTGGGGGC

Relative binding free energy, -0.1 kcal/mol:
GTGGGCACGTGGAGCG
TGTGCCACGTGTAGGC

Relative binding free energy, 0.15 kcal/mol:
CGGTCCACGTGAGTGT
TGGAGCACGTGATTAT
GTAGTCACGTGTCCGG
TGCGGCACGTGAAGTA
GGAGGCACGTGAATTG
GTTTACACGTGTATTA

Relative binding free energy, 0.17 kcal/mol:
TAATTCACGTGGCGTA
GTTGACACGTGTGAGT
GGGGGCACGTGAAAGC
TTTGTCACGTGATACT
TTTCACACGTGGTTGT

Relative binding free energy, 0.06 kcal/mol:
GATTGCACGTGGTGCA

Relative binding free energy, -0.26 kcal/mol:
TCTGGCACGTGGGGTG

Relative binding free energy, 0.3 kcal/mol:
CAGTACACGTGAGGTG
GTCCTCACGTGGTAGT

Relative binding free energy, 0.48 kcal/mol:
GGGCTCACGTGGAATA
TAGTTCACGTGGAAGC
